Source: US20230345946A1, “ANTIVIRAL SURFACES COMPRISING POLYOXOMETALATES AND ZINC MOLYBDATE” (FRIDA GROUP APS, priority 2020, published 2023)

Tested on: influenza virus A/H1N1

SMILES: [O]=[Mo](=[O])([O-])[O-].[Zn+2] [Zinc molybdate, zinc molybdate]
- reduction of virus titre: 1.33 LG
